# Measured values: PubChem BioAssay (Tox21)
# Values joined by “and” are separate entries in the source; they are usually repeats but may differ in a detail not shown here. Equal entries are not always repeated. The shares of active, inactive and inconclusive entries below differ from those in the screen. For part of these data: Where the call is inconclusive, the potency comes from a doubtful curve fit. Active and inactive are the calls of the source. Unless noted, the call rests on the fitted dose curve; in most records, active means well fitted curve in the direction sought with a large enough effect in the repeat runs; inconclusive means weak or mixed curves; inactive means no such curve, though single readings can be large; an effect the other way counts as inactive or inconclusive.
# Key:
# [1] = qHTS assay to identify small molecule that activate the aryl hydrocarbon receptor (AhR) signaling pathway - cell viability counter screen (AID 743086); further: nearly all actives have a fitted effect of over 45% in size
# Method in brief: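 HepG2-AhR-luc (HG2L7.5c1) cells, 4000/well, were preincubated 5 h at 37C, exposed to compound in qHTS format for 24 hr at 37C, then given CellTiter-Fluor for 30 min; viability was read as fluorescence in the reporter wells.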
# [2] = molecular target: Peroxisome proliferator-activated receptor gamma (Homo sapiens) (UniProt P37231); experiment: qHTS assay to identify small molecule agonists of the peroxisome proliferator-activated receptor gamma (PPARg) signaling pathway (AID 743094; active means well fitted activation curve with a large enough effect in the signal ratio in the repeat runs, not every such curve was filed as active; inconclusive means weak or mixed curves, or effect the other way; inactive means no such curve, though single readings can be large or run the other way; the % refers to the signal ratio; on activation: on the % scale 0 is the no-effect control and ±100 the full control effect); settings: HEK293H PPARg-UAS-bla, beta-lactamase FRET ratio, 17 h; activation: at 57 µM (top of the series) unless noted
# Method in brief: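 HEK293H PPARg-bla cells, 5 h settle at 37C/5% CO2; compound (DMSO) 17 h, 37C; B/G FRET substrate 1 h RT; fluorescence intensity read-out. qHTS format.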
# [3] = molecular target: Peroxisome proliferator-activated receptor gamma (Homo sapiens) (UniProt P37231); experiment: qHTS assay to identify small molecule antagonists of the peroxisome proliferator-activated receptor gamma (PPARg) signaling pathway (AID 743191; calls by dose curve; further: nearly all actives have a fitted effect of over 30% in size; on ratio activity, negative = inhibition: on the % scale 0 is the no-effect control and ±100 the full control effect); settings: HEK293H PPARg-UAS-bla, beta-lactamase ratio, antagonist, 17 h; ratio activity, negative = inhibition: at 62.6 µM (top of the series) unless noted
# Method in brief: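 GeneBLAzer PPARg UAS-bla HEK293H cells carrying a UAS-driven beta-lactamase reporter were plated at 3000 cells/well, preincubated 5 h at 37C, then given compound for 17 h at 37C; LiveBLAzer B/G FRET substrate was read after 1 h at room temperature.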
# [4] = qHTS assay to identify small molecule antagonists of the peroxisome proliferator-activated receptor gamma (PPARg) signaling pathway - cell viability counter screen (AID 743194); settings: PPARg-bla HEK293H viability, CellTiter-Glo luminescence, 17 h, co-treated with 50 nM rosiglitazone; activity change, negative = cytotoxicity: at 62.6 µM (top of the series) unless noted; further: nearly all actives have a fitted effect of over 55% in size
# Method in brief: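 PPARg-UAS-bla HEK293H cells were plated, rested 5 h at 37 C, then treated with compounds plus rosiglitazone (50 nM final) for 17 h at 37 C; viability was then read by CellTiter-Glo luminescence after 30 min at room temperature.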
# [5] = qHTS assay for small molecule agonists of the antioxidant response element (ARE) signaling pathway (AID 743202; active means well fitted activation curve with a large enough effect in the signal ratio in the repeat runs, not every such curve was filed as active; inconclusive means weak or mixed curves, or effect the other way; inactive means no such curve, though single readings can be large or run the other way; the % refers to the signal ratio; on activation: on the % scale 0 is the no-effect control and ±100 the full control effect); settings: HepG2 ARE-bla reporter, beta-lactamase FRET, 16 h; activation: at 73.3 µM (top of the series) unless noted
# Method in brief: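 Following a 16 h, 37 C exposure of reporter HepG2 cells (ARE-driven beta-lactamase, 2,000 cells/well) to compounds, FRET substrate was applied for 2 h at room temperature and fluorescence intensity recorded.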
# [6] = qHTS assay for small molecule activators of the heat shock response signaling pathway - cell viability counter screen (AID 743209); settings: HSE-bla HeLa viability, CellTiter-Glo luminescence, 5 h; activity change, negative = cytotoxicity: at 62.6 µM (top of the series) unless noted; further: nearly all actives have a fitted effect of over 50% in size; on activity change, negative = cytotoxicity: on the % scale 0 is the no-effect control and ±100 the full control effect
# Method in brief: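 HSE-bla HeLa; 1500 cells/well; overnight 37 C, 5% CO2; compound 5 h 37 C; LiveBLAzer B/G substrate 2.5 h RT; CellTiter-Glo 30 min RT; luminescence.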
# [7] = qHTS assay for small molecule activators of the heat shock response signaling pathway (AID 743210; active means well fitted activation curve with a large enough effect in the signal ratio in the repeat runs, with a control signal flat, not every such curve was filed as active; inconclusive means weak or mixed curves; the % refers to the signal ratio); settings: HeLa HSE-bla reporter, beta-lactamase ratio, 5 h; activation: at 62.6 µM (top of the series)
# Method in brief: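 Heat shock element–beta-lactamase HeLa reporter cells; qHTS with compounds for 5 h at 37 C; detection by FRET substrate fluorescence after 2.5 h at RT.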
# [8] = qHTS assay to identify small molecule agonists of the peroxisome proliferator-activated receptor delta (PPARd) signaling pathway - cell viability counter screen (AID 743211); settings: PPARd-bla HEK293H viability, CellTiter-Glo luminescence, 17 h; activity change, negative = cytotoxicity: at 62.6 µM (top of the series); further: nearly all actives have a fitted effect of over 55% in size
# Method in brief: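 PPARd-bla HEK293H cells (UAS-beta-lactamase reporter) were treated with compounds for 17 h at 37 C. Viability was then read in the same wells by CellTiter-Glo luminescence after 30 min at room temperature.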
# [9] = molecular target: Peroxisome proliferator-activated receptor delta (Homo sapiens) (UniProt Q03181); experiment: qHTS assay to identify small molecule agonists of the peroxisome proliferator-activated receptor delta (PPARd) signaling pathway (AID 743212; calls by dose curve); settings: HEK293H PPARd-UAS-bla, beta-lactamase FRET ratio, 17 h; activation: at 62.6 µM (top of the series) unless noted
# Method in brief: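 Beta-lactamase reporter read by fluorescence (LiveBLAzer B/G FRET, 2 h, room temperature). Test agents, in DMSO, incubated at 37 C with PPARd-bla HEK293H cells.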
# [10] = qHTS assay to identify small molecule antagonists of the peroxisome proliferator-activated receptor delta (PPARd) signaling pathway - cell viability counter screen (AID 743213); settings: PPARd-bla HEK293H viability, CellTiter-Glo luminescence, 17 h; viability change, negative = cytotoxic: at 62 µM (top of the series) unless noted; further: nearly all actives have a fitted effect of over 50% in size
# Method in brief: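 Luminescence from CellTiter-Glo, added after the bla read and incubated 30 min at room temperature, gives viability of HEK293H PPARd-bla cells exposed to compounds for 17 h at 37 C with 300 nM L165041.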
# [11] = molecular target: Peroxisome proliferator-activated receptor delta (Homo sapiens) (UniProt Q03181); experiment: qHTS assay to identify small molecule antagonists of the peroxisome proliferator-activated receptor delta (PPARd) signaling pathway (AID 743215; active means well fitted inhibition curve with a large enough effect in the signal ratio in the repeat runs, not every such curve was filed as active; inconclusive means weak or mixed curves, or effect the other way; inactive means no such curve, though single readings can be large or run the other way; the % refers to the signal ratio;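 further: cells stimulated with agonist L165041 at 300 nM final during compound exposure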); settings: HEK293H PPARd-UAS-bla, beta-lactamase FRET ratio, antagonist, 17 h; ratio activity, negative = inhibition: at 62 µM (top of the series) unless noted
# Method in brief: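 HEK293H GeneBLAzer PPARd UAS-bla reporter cells; cpd + L165041 300 nM final, 17 h 37 C; LiveBLAzer B/G FRET substrate 2 h RT; fluorescence intensity read-out. Antagonist mode.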
# [12] = molecular target: Bile acid receptor (Homo sapiens) (UniProt Q96RI1); experiment: qHTS assay to identify small molecule antagonists of the farnesoid-X-receptor (FXR) signaling pathway (AID 743217; active means well fitted inhibition curve with a large enough effect in the signal ratio in the repeat runs, not every such curve was filed as active; inconclusive means weak or mixed curves, or effect the other way; inactive means no such curve, though single readings can be large or run the other way; the % refers to the signal ratio); settings: HEK293T FXR-UAS-bla, beta-lactamase ratio, CDCA-stimulated, 16 h; activity change, negative = inhibition: at 62.6 µM (top of the series) unless noted
# Method in brief: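 Read-out: beta-lactamase FRET fluorescence (LiveBLAzer B/G substrate, 2 h, room temperature) in GeneBLAzer FXR-UAS-bla HEK 293T cells. Compounds were co-dosed with 50 uM chenodeoxycholic acid (final) and incubated 16 h at 37 °C.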
# [13] = qHTS assay to identify small molecule agonists of the farnesoid-X-receptor (FXR) signaling pathway - cell viability counter screen (AID 743218); settings: FXR-bla HEK293T viability, CellTiter-Glo luminescence, 16 h; viability change, negative = cytotoxic: at 62.6 µM (top of the series) unless noted; further: nearly all actives have a fitted effect of over 45% in size
# Method in brief: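 Luminescence from CellTiter-Glo, read after 30 min at RT, reports viability of GeneBLAzer FXR-UAS-bla HEK 293T cells treated 16 h with compounds in the wells used for the beta-lactamase reporter.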
# [14] = qHTS assay to identify small molecule antagonists of the farnesoid-X-receptor (FXR) signaling pathway - cell viability counter screen (AID 743221; active means well fitted cell-killing curve with a large enough effect in the repeat runs, not every such curve was filed as active; inconclusive means weak or mixed curves, or effect the other way; inactive means no such curve, though single readings can be large or run the other way; further: nearly all actives have a fitted effect of over 50% in size); settings: FXR-bla HEK293T viability, CellTiter-Glo luminescence, 16 h; activity change, negative = cytotoxicity: at 62.6 µM (top of the series)
# Method in brief: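 FXR-UAS-bla HEK 293T cells were treated with test compounds plus chenodeoxycholic acid (50 uM final) for 16 h at 37 C. Cell viability in the same wells was then read as CellTiter-Glo luminescence after 30 min at room temperature.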
# [15] = molecular target: Vitamin D3 receptor (Homo sapiens) (UniProt P11473); experiment: qHTS assay to identify small molecule agonists of the vitamin D receptor (VDR) signaling pathway (AID 743222; calls by dose curve); settings: HEK293T VDR-UAS-bla, beta-lactamase FRET ratio, 16 h; activation: at 63.5 µM (top of the series) unless noted
# Method in brief: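 Beta-lactamase reporter readout (LiveBLAzer B/G FRET, 2 h RT) in VDR-bla cells after 16 h compound treatment at 37C, 5% CO2; cells pre-incubated 4 h before pin transfer of DMSO solutions.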
# [16] = molecular target: Vitamin D3 receptor (Homo sapiens) (UniProt P11473); experiment: qHTS assay to identify small molecule antagonists of the vitamin D receptor (VDR) signaling pathway (AID 743223; active means well fitted inhibition curve with a large enough effect in the signal ratio in the repeat runs, not every such curve was filed as active; inconclusive means weak or mixed curves, or effect the other way; inactive means no such curve, though single readings can be large or run the other way; the % refers to the signal ratio); settings: VDR-UAS-bla HEK293T, beta-lactamase FRET ratio, 16 h; activity change, negative = inhibition: at 61 µM (top of the series) unless noted
# Method in brief: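 VDR-bla cells were plated, incubated 4 h at 37C, then given compound and 1alpha,25-dihydroxyvitamin D3 (3 nM final). After 16 h at 37C, LiveBLAzer B/G FRET substrate was added for 2 h at room temperature and fluorescence read.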
# [17] = qHTS assay to identify small molecule agonists of the vitamin D receptor (VDR) signaling pathway - cell viability counter screen (AID 743224); settings: VDR-bla HEK293T viability, CellTiter-Glo luminescence, 16 h; activity change, negative = cytotoxicity: at 62.6 µM (top of the series) unless noted; further: nearly all actives have a fitted effect of over 50% in size
# Method in brief: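 Cytotoxicity counter screen: VDR-bla cells, 16 h compound exposure at 37C, 5% CO2; CellTiter-Glo luminescence, 30 min RT, same wells as bla read.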
# [18] = qHTS assay to identify small molecule antagonists of the vitamin D receptor (VDR) signaling pathway - cell viability counter screen (AID 743225); settings: VDR-bla HEK293T viability, CellTiter-Glo luminescence, 16 h; viability change, negative = cytotoxic: at 61 µM (top of the series) unless noted; further: nearly all actives have a fitted effect of over 50% in size
# Method in brief: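 VDR-bla HEK 293T cells, 4 h pre-incubation at 37C, then compound plus 1-alpha,25-dihydroxyvitamin D3 (3 nM final) for 16 h. After the beta-lactamase FRET read, CellTiter-Glo was added to the same wells; luminescence after 30 min at room temperature.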
# [19] = molecular target: Bile acid receptor (Homo sapiens) (UniProt Q96RI1); experiment: qHTS assay to identify small molecule agonists of the farnesoid-X-receptor (FXR) signaling pathway (AID 743220; active means well fitted activation curve with a large enough effect in the signal ratio in the repeat runs, not every such curve was filed as active; inconclusive means weak or mixed curves, or effect the other way; the % refers to the signal ratio); settings: HEK293T FXR-UAS-bla, beta-lactamase FRET ratio, 16 h; activation: at 62.6 µM (top of the series) unless noted
# Method in brief: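 FXR-UAS-bla HEK 293T cells carrying a UAS-driven beta-lactamase reporter were plated for 5 h at 37C/5% CO2, then exposed to DMSO-dissolved Tox21 10K compounds for 16 h at 37C. A LiveBLAzer B/G FRET substrate was loaded for 2 h at room temperature before fluorescence reading.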
# Potency means the concentration at half of the fitted maximal effect; tags describe the fitted curve by direction and shape or compound fluorescence and quenching.
# UniProt Q96RI1, sequence (Q96RI1 whole entry, looked up): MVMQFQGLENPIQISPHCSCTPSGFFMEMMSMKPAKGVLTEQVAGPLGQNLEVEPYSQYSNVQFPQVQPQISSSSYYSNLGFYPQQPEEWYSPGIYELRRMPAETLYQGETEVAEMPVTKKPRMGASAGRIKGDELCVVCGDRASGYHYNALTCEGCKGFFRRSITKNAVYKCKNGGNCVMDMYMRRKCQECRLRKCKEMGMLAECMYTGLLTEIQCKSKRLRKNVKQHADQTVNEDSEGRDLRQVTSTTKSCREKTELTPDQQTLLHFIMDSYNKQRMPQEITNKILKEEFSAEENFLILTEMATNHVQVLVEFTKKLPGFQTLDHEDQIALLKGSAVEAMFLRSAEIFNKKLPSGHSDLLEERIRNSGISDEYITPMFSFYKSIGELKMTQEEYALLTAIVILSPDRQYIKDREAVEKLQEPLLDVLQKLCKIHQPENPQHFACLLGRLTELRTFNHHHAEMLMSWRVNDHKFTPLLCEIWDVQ
# UniProt P11473, sequence (P11473 whole entry, looked up): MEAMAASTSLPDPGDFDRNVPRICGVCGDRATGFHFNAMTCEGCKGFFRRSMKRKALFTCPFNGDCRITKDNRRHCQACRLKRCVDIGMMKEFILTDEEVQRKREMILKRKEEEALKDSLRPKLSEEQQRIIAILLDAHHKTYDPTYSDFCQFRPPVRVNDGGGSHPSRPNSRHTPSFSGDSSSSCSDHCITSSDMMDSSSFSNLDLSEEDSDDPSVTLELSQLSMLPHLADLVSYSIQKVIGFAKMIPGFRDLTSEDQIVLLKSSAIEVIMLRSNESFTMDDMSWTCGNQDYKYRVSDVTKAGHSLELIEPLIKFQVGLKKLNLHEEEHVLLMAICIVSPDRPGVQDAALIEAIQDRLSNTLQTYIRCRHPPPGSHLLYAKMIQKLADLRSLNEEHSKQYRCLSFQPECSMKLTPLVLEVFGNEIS
# UniProt P37231, sequence (P37231 whole entry, looked up): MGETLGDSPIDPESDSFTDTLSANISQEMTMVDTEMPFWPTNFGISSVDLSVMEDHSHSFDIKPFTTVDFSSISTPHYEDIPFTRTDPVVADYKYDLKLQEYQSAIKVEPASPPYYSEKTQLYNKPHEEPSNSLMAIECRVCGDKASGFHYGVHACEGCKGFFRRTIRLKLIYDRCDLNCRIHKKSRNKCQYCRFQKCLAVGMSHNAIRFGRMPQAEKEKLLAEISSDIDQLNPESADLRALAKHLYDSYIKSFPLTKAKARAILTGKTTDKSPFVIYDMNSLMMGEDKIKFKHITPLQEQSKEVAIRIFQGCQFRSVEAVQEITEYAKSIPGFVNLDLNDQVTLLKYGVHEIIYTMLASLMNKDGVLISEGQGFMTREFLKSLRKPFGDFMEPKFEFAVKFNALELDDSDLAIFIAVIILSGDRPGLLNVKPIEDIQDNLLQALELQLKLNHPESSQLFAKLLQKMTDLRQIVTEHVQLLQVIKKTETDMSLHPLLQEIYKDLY
# UniProt Q03181, sequence (Q03181 whole entry, looked up): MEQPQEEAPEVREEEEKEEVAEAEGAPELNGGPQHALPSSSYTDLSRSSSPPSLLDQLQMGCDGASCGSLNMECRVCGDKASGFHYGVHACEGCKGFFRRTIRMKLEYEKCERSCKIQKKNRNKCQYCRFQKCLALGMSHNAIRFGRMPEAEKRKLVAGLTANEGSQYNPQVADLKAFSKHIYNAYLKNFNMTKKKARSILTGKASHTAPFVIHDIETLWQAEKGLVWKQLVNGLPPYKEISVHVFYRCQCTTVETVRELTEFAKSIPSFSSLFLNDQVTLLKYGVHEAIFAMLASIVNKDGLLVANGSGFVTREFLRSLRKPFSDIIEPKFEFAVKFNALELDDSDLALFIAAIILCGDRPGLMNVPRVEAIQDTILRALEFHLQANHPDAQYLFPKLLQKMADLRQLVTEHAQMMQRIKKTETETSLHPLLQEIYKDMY
smiles,measurement,setting,value
C[n+]1cc2c3c(ccc2c2ccc4cc5c(cc4c21)OCO5)OCO3,Potency,[1],active: 10.6 µM
same,Potency,[2],"inconclusive: 21.3 µM [fluorescent, partial curve]"
same,Potency,[3],"inconclusive: 1.64 µM [rising, full curve]"
same,Potency,[4],active: 1.3 µM
same,Potency,[5],"inconclusive: 0.82 µM [falling, full curve]"
same,Potency,[6],"inconclusive: 1.3 µM [cytotoxic, single point]"
same,Potency,[7],inconclusive: 3.8 µM
same,Potency,[8],active: 1.46 µM
same,Potency,[9],"inconclusive: 0.164 µM [rising, full curve, poor fit]"
same,Potency,[10],active: 1.84 µM
same,Potency,[11],active: 2.59 µM
same,Potency,[12],inconclusive: 1.46 µM [full curve]
same,Potency,[13],active: 1.46 µM
same,Potency,[14],active: 1.46 µM
same,Potency,[15],"inconclusive: 0.92 µM [fluorescent, full curve]"
same,Potency,[16],inconclusive: 2.61 µM
same,Potency,[17],active: 0.58 µM
same,Potency,[18],active: 1.31 µM
COC(=O)c1c(Cl)c(Cl)c(C(=O)OC)c(Cl)c1Cl,Potency,[1],"inconclusive: 0.137 µM [rising, full curve, poor fit]"
same,activation,[2],inconclusive: 13.4%
same,"ratio activity, negative = inhibition",[3],inconclusive: -43.4% [at 81.1 µM]
same,Potency,[4],"inconclusive: 0.871 µM [cytotoxic, full curve, poor fit]"
same,activation,[5],inconclusive: 2.57% and inconclusive: -14.2%
same,Potency,[6],"inactive and inconclusive: 61.6 µM [cytotoxic, single point]"
same,Potency,[9],"inconclusive: 6.16 µM [falling, full curve, poor fit]"
same,Potency,[10],"inconclusive: 5.45 µM [rising, full curve, poor fit]"
same,Potency,[11],"inconclusive: 0.155 µM [fluorescent, full curve, poor fit]"
same,"activity change, negative = inhibition",[12],inconclusive: -26% [at 81.1 µM]
same,Potency,[19],"inconclusive: 122 µM [rising, single point]"
same,Potency,[15],"inconclusive: 54.9 µM [activator, single point]"
same,Potency,[16],"inconclusive: 21.9 µM [activator, single point]"
same,"activity change, negative = inhibition",[16],inconclusive: 9.41%
same,Potency,[18],"inconclusive: 1.1 µM [cytotoxic, single point]"
